Experimental data published in the supplement of paper PMC6657886.
MIC of clinical N. gonorrhoeae isolates (2015-2017) by agar dilution on GC agar with 1% IsoVitaleX (ranges not stated); higher = less susceptible. No active / inactive call per row; the paper counts benzylpenicillin above 1 and ceftriaxone above 0.125 mg/L as resistant (EUCAST). The method is stated for benzylpenicillin and ceftriaxone and assumed for the other drugs. '<=' is inferred from pile-ups at the end values. Isolates are numbered anew.

Key:
Test in all cases: Agar dilution on enriched GC agar; resistance determinants by microarray.
tetracycline = compound: CN(C)[C@@H]1C(O)=C(C(N)=O)C(=O)[C@@]2(O)C(O)=C3C(=O)c4c(O)cccc4[C@@](C)(O)[C@H]3C[C@@H]12 [tetracycline]
spectinomycin = compound: CN[C@@H]1[C@H](O)[C@H](NC)[C@H]2O[C@@]3(O)C(=O)C[C@@H](C)O[C@H]3O[C@@H]2[C@H]1O [spectinomycin]
benzylpenicillin = compound: CC1(C)S[C@@H]2[C@H](NC(=O)Cc3ccccc3)C(=O)N2[C@H]1C(=O)O [benzylpenicillin]
ceftriaxone = compound: CO/N=C(\C(=O)N[C@@H]1C(=O)N2C(C(=O)O)=C(CSc3nc(=O)c(O)nn3C)CS[C@H]12)c1csc(N)n1 [ceftriaxone]
azithromycin = compound: CC[C@H]1OC(=O)[C@H](C)[C@@H](O[C@H]2C[C@@](C)(OC)[C@@H](O)[C@H](C)O2)[C@H](C)[C@@H](O[C@@H]2O[C@H](C)C[C@H](N(C)C)[C@H]2O)[C@](C)(O)C[C@@H](C)CN(C)[C@H](C)[C@@H](O)[C@]1(C)O [azithromycin]

Test System	MIC (tetracycline)	MIC (spectinomycin)	MIC (benzylpenicillin)	MIC (ceftriaxone)	MIC (azithromycin)
Neisseria gonorrhoeae isolate 389 (blaTEM plasmid: no, gyrA: wild type, mtrR promoter: wild type, parC: wild type, penA: ins345Asp, ponA: Pro421, porB: wild type, rpsJ: wild type, tetM plasmid: no)	0.25 µg/mL	8 µg/mL	0.06 µg/mL	≤ 0.002 µg/mL	0.12 µg/mL
Neisseria gonorrhoeae isolate 62 (blaTEM plasmid: no, gyrA: wild type, mtrR promoter: wild type, parC: wild type, penA: ins345Asp, ponA: wild type, porB: wild type, rpsJ: wild type, tetM plasmid: no)	0.12 µg/mL	16 µg/mL	0.06 µg/mL	0.008 µg/mL	0.03 µg/mL
Neisseria gonorrhoeae isolate 346 (blaTEM plasmid: no, gyrA: Phe91, Asn 95, mtrR promoter: -35delA, parC: wild type, penA: ins345Asp, ponA: wild type, porB: Asn120, Asp 121, rpsJ: Met57, tetM plasmid: no)	4 µg/mL	16 µg/mL	2 µg/mL	0.03 µg/mL	0.5 µg/mL
Neisseria gonorrhoeae isolate 91 (blaTEM plasmid: no, gyrA: wild type, mtrR promoter: wild type, parC: wild type, penA: wild type, ponA: wild type, porB: wild type, rpsJ: wild type, tetM plasmid: no)	0.12 µg/mL	16 µg/mL	≤ 0.015 µg/mL	≤ 0.002 µg/mL	0.06 µg/mL
Neisseria gonorrhoeae isolate 164 (blaTEM plasmid: no, gyrA: wild type, mtrR promoter: wild type, parC: wild type, penA: ins345Asp, ponA: wild type, porB: wild type, rpsJ: wild type, tetM plasmid: no)	4 µg/mL	16 µg/mL	1 µg/mL	0.125 µg/mL	0.5 µg/mL
Neisseria gonorrhoeae isolate 276 (blaTEM plasmid: no, gyrA: Thr91, Gly95, mtrR promoter: wild type, parC: wild type, penA: ins345Asp, ponA: Pro421, porB: wild type, rpsJ: Met57, tetM plasmid: no)	0.5 µg/mL	16 µg/mL	0.06 µg/mL	≤ 0.002 µg/mL	0.06 µg/mL
Neisseria gonorrhoeae isolate 281 (blaTEM plasmid: no, gyrA: wild type, mtrR promoter: wild type, parC: wild type, penA: ins345Asp, ponA: Pro421, porB: wild type, rpsJ: wild type, tetM plasmid: no)	0.12 µg/mL	8 µg/mL	≤ 0.015 µg/mL	≤ 0.002 µg/mL	0.03 µg/mL
Neisseria gonorrhoeae isolate 130 (blaTEM plasmid: no, gyrA: wild type, mtrR promoter: wild type, parC: wild type, penA: ins345Asp, ponA: wild type, porB: wild type, rpsJ: wild type, tetM plasmid: no)	0.25 µg/mL	32 µg/mL	0.06 µg/mL	0.004 µg/mL	0.06 µg/mL
Neisseria gonorrhoeae isolate 392 (blaTEM plasmid: no, gyrA: Phe91, Gly95, mtrR promoter: wild type, parC: Arg87, Glu91, penA: ins345Asp, ponA: Pro421, porB: wild type, rpsJ: Met57, tetM plasmid: no)	2 µg/mL	32 µg/mL	0.25 µg/mL	0.008 µg/mL	0.015 µg/mL
Neisseria gonorrhoeae isolate 463 (blaTEM plasmid: no, gyrA: Phe91, Asn95, mtrR promoter: wild type, parC: Arg87, Glu91, penA: ins345Asp, ponA: wild type, porB: Lys120, Asn121, rpsJ: wild type, tetM plasmid: no)	1 µg/mL	32 µg/mL	0.25 µg/mL	0.004 µg/mL	0.12 µg/mL
Neisseria gonorrhoeae isolate 57 (blaTEM plasmid: no, gyrA: wild type, mtrR promoter: wild type, parC: wild type, penA: ins345Asp, ponA: Pro421, porB: Asn120, Asp121, rpsJ: Met57, tetM plasmid: no)	2 µg/mL	16 µg/mL	1 µg/mL	0.015 µg/mL	0.25 µg/mL
Neisseria gonorrhoeae isolate 224 (blaTEM plasmid: no, gyrA: wild type, mtrR promoter: wild type, parC: wild type, penA: wild type, ponA: wild type, porB: wild type, rpsJ: wild type, tetM plasmid: no)	0.12 µg/mL	16 µg/mL	≤ 0.015 µg/mL	≤ 0.002 µg/mL	0.06 µg/mL
Neisseria gonorrhoeae isolate 69 (blaTEM plasmid: no, gyrA: wild type, mtrR promoter: wild type, parC: wild type, penA: ins345Asp, ponA: wild type, porB: wild type, rpsJ: wild type, tetM plasmid: no)	0.12 µg/mL	16 µg/mL	0.06 µg/mL	0.008 µg/mL	0.03 µg/mL
Neisseria gonorrhoeae isolate 109 (blaTEM plasmid: no, gyrA: Phe91, Gly95, mtrR promoter: -35delA, parC: Ser87, Gly91, penA: ins345Asp, ponA: Pro421, porB: Asn120, Asp121, rpsJ: Met57, tetM plasmid: no)	4 µg/mL	32 µg/mL	0.25 µg/mL	0.008 µg/mL	0.25 µg/mL
Neisseria gonorrhoeae isolate 36 (blaTEM plasmid: yes, gyrA: wild type, mtrR promoter: wild type, parC: wild type, penA: ins345Asp, ponA: wild type, porB: Lys 120, Gly121, rpsJ: wild type, tetM plasmid: no)	0.5 µg/mL	16 µg/mL	≥ 32 µg/mL	≤ 0.002 µg/mL	0.03 µg/mL
Neisseria gonorrhoeae isolate 304 (blaTEM plasmid: no, gyrA: Thr91, Gly95, mtrR promoter: wild type, parC: wild type, penA: wild type, ponA: wild type, porB: wild type, rpsJ: wild type, tetM plasmid: no)	0.25 µg/mL	32 µg/mL	0.25 µg/mL	0.004 µg/mL	0.12 µg/mL
Neisseria gonorrhoeae isolate 143 (blaTEM plasmid: no, gyrA: Phe91, Asp95, mtrR promoter: wild type, parC: wild type, penA: ins345Asp, ponA: Pro421, porB: Asp120, Gly121, rpsJ: Met57, tetM plasmid: yes)	2 µg/mL	32 µg/mL	1 µg/mL	0.008 µg/mL	0.03 µg/mL
Neisseria gonorrhoeae isolate 306 (blaTEM plasmid: no, gyrA: wild type, mtrR promoter: wild type, parC: wild type, penA: ins345Asp, ponA: wild type, porB: wild type, rpsJ: wild type, tetM plasmid: no)	0.25 µg/mL	32 µg/mL	0.06 µg/mL	≤ 0.002 µg/mL	0.03 µg/mL
